Here are results for 27 compounds from the supplement of paper PMC10037445.

In all, about 2,900 compounds were measured (“NF-kB SEAP reporter activity, fold change vs agonist alone”: median about 0.99, highest 2% from about 2.6 on). This is one part of the list.

For assay [1], the system named is RAW-Dual. Put plainly: NF-kB SEAP reporter activity, fold change vs agonist alone; higher = enhanced NF-kB activity. The procedure, abridged: (§1)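 Cytotoxic wells were those whose IncuCyte confluency was below 70% of agonist controls in both mask sets. The cells were RAW-Dual macrophages at 50,000 cells/well in DMEM on 384-well plates, dosed with 50 nL of library stock by pin tool, stimulated with a PRR agonist 1 h later, and kept at 37 °C, 5% CO2 for 20 hours. IRF and NF-κB reporter activity, as fold change over agonist-alone wells, came from supernatant read by QuantiLuc luminescence and QuantiBlue absorbance, respectively.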

Assay [2] has as its system RAW-Dual. Kind of assay: NF-kB SEAP reporter activity, fold change vs agonist alone; cytotoxicity flag (confluency mask): cytotoxic (confluency <70% of control); higher = enhanced NF-kB activity. The procedure, abridged:
as §1

For assay [3], the system named is RAW-Dual. Put plainly: NF-kB SEAP reporter activity, fold change vs agonist alone; cytotoxicity flag (confluency mask): not cytotoxic; higher = enhanced NF-kB activity. The procedure, abridged: as §1
The mark [4] stands for this setting: library stock concentration (final ~1000-fold dilution): 10 mM, cytotoxicity flag (confluency mask): cytotoxic (confluency <70% of control), agonist: MPLA (TLR4) […].
[5] abbreviates: agonist: ODN 1826 (TLR9) 0.5 ug/mL.
Where [6] appears, read: agonist: Pam2CSK4 (TLR2/6) 0.1 ug/mL.
Setting [7] is: agonist: Pam3CSK4 (TLR2/1) 0.1 ug/mL.
[8] abbreviates: library stock concentration (final ~1000-fold dilution): 10 mM, cytotoxicity flag (confluency mask): not cytotoxic, agonist: Imiquimod (TLR7) […].
[9] abbreviates: library stock concentration (final ~1000-fold dilution): 10 mM, cytotoxicity flag (confluency mask): not cytotoxic, agonist: MPLA (TLR4) […].

`C=CC(=O)Nc1cc(Nc2nccc(-c3cn(C)c4ccccc34)n2)c(OC)cc1N(C)CCN(C)C.CS(=O)(=O)O`: the “NF-kB SEAP reporter activity” value in assay [1] (setting [4]) was 1.91.

As to `C=CC(=O)Nc1cc(Nc2nccc(-c3cn(C)c4ccccc34)n2)c(OC)cc1N(C)CCN(C)C.CS(=O)(=O)O` (library stock concentration (final ~1000-fold dilution): 10 mM), the “NF-kB SEAP reporter activity” value in assay [2] (agonist: LPS (TLR4) 0.1 ug/mL) was 2.39; in assay [2] (setting [5]), 0.214; in assay [2] (setting [6]), 1.28; in assay [2] (setting [7]), 0.898.

As for `O=c1cccccc1O` (library stock concentration (final ~1000-fold dilution): 10 mM), the “NF-kB SEAP reporter activity” value in assay [3] (agonist: LPS (TLR4) 0.1 ug/mL) came to 0.876; in assay [3] (setting [5]), 1.05; in assay [3] (setting [6]), 1.02; in assay [3] (setting [7]) it was 0.828.

`O=c1cccccc1O`: the “NF-kB SEAP reporter activity” value is 0.945 in assay [1] (setting [8]) and 1.26 in assay [1] (setting [9]).

For `Cn1c2ccccc2c2c3c(c4c5ccccc5n(CCC#N)c4c21)CNC3=O`, the “NF-kB SEAP reporter activity” value in assay [1] (setting [8]) worked out at 1.21; in assay [1] (setting [9]), 1.43.

`Cn1c2ccccc2c2c3c(c4c5ccccc5n(CCC#N)c4c21)CNC3=O` (library stock concentration (final ~1000-fold dilution): 10 mM): the “NF-kB SEAP reporter activity” value in assay [3] (agonist: LPS (TLR4) 0.1 ug/mL) stood at 0.901; in assay [3] (setting [5]) it was 0.414; in assay [3] (setting [6]), 0.26; in assay [3] (setting [7]), 0.346.

`O=C(O)c1ccc2c3c1cccc3c(=O)n1c3ccccc3nc21` (library stock concentration (final ~1000-fold dilution): 10 mM): the “NF-kB SEAP reporter activity” value in assay [3] (agonist: LPS (TLR4) 0.1 ug/mL) came out at 1.96; in assay [3] (setting [5]), 1.2; in assay [3] (setting [6]), 1.46; in assay [3] (setting [7]), 2.15.

Turning to `O=C(O)c1ccc2c3c1cccc3c(=O)n1c3ccccc3nc21`, the “NF-kB SEAP reporter activity” value in assay [1] (setting [8]) turned out to be 1.04; in assay [1] (setting [9]) it was 1.33.

For `COc1ccc(CNC(=O)Nc2ncc([N+](=O)[O-])s2)cc1`, the results for the “NF-kB SEAP reporter activity” value in assay [1] (setting [8]) and in assay [1] (setting [9]) were 1.2 and 1.68, respectively.

Take `COc1ccc(CNC(=O)Nc2ncc([N+](=O)[O-])s2)cc1` (library stock concentration (final ~1000-fold dilution): 10 mM): the “NF-kB SEAP reporter activity” value amounted to 2.74 in assay [3] (agonist: LPS (TLR4) 0.1 ug/mL), 1.64 in assay [3] (setting [5]), 0.864 in assay [3] (setting [6]) and 1.32 in assay [3] (setting [7]).

`O=[N+]([O-])c1cnc(Sc2nnc(O)n2-c2ccc3c(c2)OCCO3)s1` (library stock concentration (final ~1000-fold dilution): 10 mM): the “NF-kB SEAP reporter activity” value in assay [3] (agonist: LPS (TLR4) 0.1 ug/mL) was determined as 0.4; in assay [3] (setting [5]), 0.202; in assay [3] (setting [6]), 0.0784; in assay [3] (setting [7]), 0.225.

Turning to `O=[N+]([O-])c1cnc(Sc2nnc(O)n2-c2ccc3c(c2)OCCO3)s1`, the results for the “NF-kB SEAP reporter activity” value in assay [1] (setting [8]) and in assay [1] (setting [9]) were 0.155 and 0.276, respectively.

Turning to `N#CC1CCCN1C(=O)CNC12CC3CC(CC(O)(C3)C1)C2` (centres undefined) (library stock concentration (final ~1000-fold dilution): 10 mM), the “NF-kB SEAP reporter activity” value in assay [3] (agonist: LPS (TLR4) 0.1 ug/mL) came to 1.32; in assay [3] (setting [5]), 0.993; in assay [3] (setting [6]), 1.21; in assay [3] (setting [7]) it was 0.994.

For `N#CC1CCCN1C(=O)CNC12CC3CC(CC(O)(C3)C1)C2` (centres undefined), the “NF-kB SEAP reporter activity” value in assay [1] (setting [8]) worked out at 0.891; in assay [1] (setting [9]), 1.02.

Consider `C/C(=N\NC(=O)c1cccc(S(=O)(=O)N2CCOCC2)c1)c1cc(Cl)ccc1O`, for which the “NF-kB SEAP reporter activity” value in assay [1] (setting [8]) was 1.53; in assay [1] (setting [9]), 1.65.

On to `C/C(=N\NC(=O)c1cccc(S(=O)(=O)N2CCOCC2)c1)c1cc(Cl)ccc1O` (library stock concentration (final ~1000-fold dilution): 10 mM), for which the “NF-kB SEAP reporter activity” value is 2.6 in assay [3] (agonist: LPS (TLR4) 0.1 ug/mL), 1.9 in assay [3] (setting [5]), 1.52 in assay [3] (setting [6]) and 2.48 in assay [3] (setting [7]).

For the compound `CC(Nc1nc(N2CCCC2)nc2ccccc12)c1ccccc1` (centres undefined), the “NF-kB SEAP reporter activity” value in assay [1] (setting [8]) was found to be 0.421; in assay [1] (setting [9]) it was 1.17.

Consider `CC(Nc1nc(N2CCCC2)nc2ccccc12)c1ccccc1` (centres undefined) (library stock concentration (final ~1000-fold dilution): 10 mM), for which the “NF-kB SEAP reporter activity” value in assay [3] (agonist: LPS (TLR4) 0.1 ug/mL) was found to be 0.851; in assay [3] (setting [5]), 0.214; in assay [3] (setting [6]), 0.655; in assay [3] (setting [7]), 0.588.

Turning to `O=S(=O)(O)CCCS(=O)(=O)O`, the “NF-kB SEAP reporter activity” value in assay [1] (library stock concentration (final ~1000-fold dilution): 10 mM water, cytotoxicity flag (confluency mask): not cytotoxic, agonist: Imiquimod (TLR7) […]) was determined as 0.974; in assay [1] (library stock concentration (final ~1000-fold dilution): 10 mM water, cytotoxicity flag (confluency mask): not cytotoxic, agonist: MPLA (TLR4) […]), 1.05.

For the compound `O=S(=O)(O)CCCS(=O)(=O)O` (library stock concentration (final ~1000-fold dilution): 10 mM water), the “NF-kB SEAP reporter activity” value stood at 1.04 in assay [3] (agonist: LPS (TLR4) 0.1 ug/mL), 1.14 in assay [3] (setting [5]), 1.14 in assay [3] (setting [6]) and 0.974 in assay [3] (setting [7]).

Take `Nc1cccc2c1CN(C1CCC(=O)NC1=O)C2=O` (centres undefined): the “NF-kB SEAP reporter activity” value turned out to be 0.919 in assay [1] (setting [8]) and 1.01 in assay [1] (setting [9]).

Take `Nc1cccc2c1CN(C1CCC(=O)NC1=O)C2=O` (centres undefined) (library stock concentration (final ~1000-fold dilution): 10 mM): the “NF-kB SEAP reporter activity” value in assay [3] (agonist: LPS (TLR4) 0.1 ug/mL) came to 1.14; in assay [3] (setting [5]), 0.998; in assay [3] (setting [6]), 0.963; in assay [3] (setting [7]), 1.1.

`Cc1cccc2c3c(ccc12)C1=C(C(=O)C3=O)C(C)CO1` (centres undefined): the “NF-kB SEAP reporter activity” value in assay [1] (setting [8]) was 1.31; in assay [1] (setting [9]) it was 2.12.

Consider `Cc1cccc2c3c(ccc12)C1=C(C(=O)C3=O)C(C)CO1` (centres undefined) (library stock concentration (final ~1000-fold dilution): 10 mM), for which the “NF-kB SEAP reporter activity” value in assay [3] (agonist: LPS (TLR4) 0.1 ug/mL) stood at 0.465; in assay [3] (setting [5]) it was 1.12; in assay [3] (setting [6]) it was 0.72; in assay [3] (setting [7]), 0.641.

In the case of `NC(=S)N/N=C/c1ncccc1N`, the “NF-kB SEAP reporter activity” value in assay [1] (setting [8]) came to 1.55; in assay [1] (setting [9]) it was 1.56.

Take `NC(=S)N/N=C/c1ncccc1N` (library stock concentration (final ~1000-fold dilution): 10 mM): the “NF-kB SEAP reporter activity” value turned out to be 2.34 in assay [3] (agonist: LPS (TLR4) 0.1 ug/mL), 1.65 in assay [3] (setting [5]), 1.07 in assay [3] (setting [6]) and 1.81 in assay [3] (setting [7]).

`CCCCCCCCOC(=O)c1cc(O)c(O)c(O)c1`: the “NF-kB SEAP reporter activity” value in assay [1] (library stock concentration (final ~1000-fold dilution): 10 mM, cytotoxicity flag (confluency mask): cytotoxic (confluency <70% of control), agonist: Imiquimod (TLR7) […]) is 0.278; in assay [1] (setting [4]), 0.383.
